Measured values from PMC10668032.
The other results are listed elsewhere or left out. At the low end of the ranking the order means little.

Molecular target: SIX1 homeodomain (reference allele) (UniProt Q15475)
Assay: universal protein binding microarray
Conditions: Universal all-10-mer PBM (8x60K, AMADID 030236), 300 nM GST-tagged protein, Alexa Fluor 488 anti-GST; buffer, salt, pH and temperature not stated; high values mean tight binding; most listed sequences are background and not binding sites; double strand, one strand shown

Sequence	binding signal
GTTGACGA	-0.196 E-score
ACATATCT	0.233 E-score
AAACCGTA	0.0539 E-score
CATTCCCG	-0.156 E-score
AAGCGGCC	-0.26 E-score
CGCAAACA	-0.105 E-score
CCAATAAG	-0.174 E-score
AGAAAGCG	-0.226 E-score
GAGCGTCA	-0.24 E-score
AACCCGCT	-0.0842 E-score
TATTAGGA	0.109 E-score
CGTGGTGC	-0.246 E-score
AGCAAATG	-0.25 E-score
CGACGCAG	-0.1 E-score
CATCGCCC	0.0101 E-score
ATCACGGC	0.14 E-score
AACTTCTG	-0.247 E-score
AGGCAGAC	-0.0905 E-score
CTCGGCGC	-0.0825 E-score
CGCACGCC	-0.0869 E-score
GACCCGCC	0.0759 E-score
ATATTGAC	0.145 E-score
ATTCCGTG	0.156 E-score
ATTAAGTA	0.0942 E-score

Sequence	binding signal
CGGAACTC	0.0207 E-score
GTAACGTA	-0.22 E-score
ACCGCTCC	-0.169 E-score
CATCTTGA	-0.138 E-score
GGCAGCAC	-0.198 E-score
CTAGGTTA	-0.0917 E-score
CCGATACA	0.355 E-score
GGAATAAA	-0.145 E-score
ATGAATGA	-0.0359 E-score
ACACCAAA	0.263 E-score
CCTACGGC	-0.202 E-score
AATTCAAT	-0.175 E-score
AATTGAGA	0.131 E-score
CAAGATGA	-0.0342 E-score
ATCCGATA	0.466 E-score
CCTTACCA	-0.146 E-score
CCCTGTTA	0.00736 E-score
GACGGGAA	-0.118 E-score
ACCTGCGA	-0.00164 E-score
CAACAGGA	-0.043 E-score
GCAGCGGA	-0.0525 E-score
AATTCGAC	-0.19 E-score
ATCCCTCC	0.329 E-score
CTGGTACC	-0.0977 E-score

Sequence	binding signal
GGACTCAA	-0.0841 E-score
TCGAGAGA	0.131 E-score
CATTGACG	-0.0322 E-score
CAACCGGG	-0.0253 E-score
AGACCTCG	0.0568 E-score
CGGTAGCA	-0.112 E-score
GAGAACCC	0.246 E-score
GCTTATCA	0.066 E-score
CAGGTGAA	-0.194 E-score
AGAGACAT	0.0366 E-score
ATGGACTG	-0.181 E-score
GCTGATCC	0.425 E-score
CAACCCTG	0.0479 E-score
CCGACAAC	-0.13 E-score
ACCAGAGG	-0.066 E-score
AAACGCTA	-0.249 E-score
CTGAAATA	-0.00998 E-score
AATACCCG	0.293 E-score
GTATTTTA	0.128 E-score
GCCCAATA	0.114 E-score
AAGGTCTC	-0.0615 E-score
ACCTGTCA	-0.128 E-score
CGTGAATA	0.0933 E-score
ACTTACAT	-0.106 E-score

Sequence	binding signal
TCCTAACA	-0.0935 E-score
AGTGGTGG	-0.0271 E-score
TCGCTCAA	-0.139 E-score
AGGTCTAA	-0.0365 E-score
CAGGTTAG	-0.176 E-score
CACAATAA	0.00671 E-score
CACTGTCG	-0.109 E-score
GATAATAA	0.0943 E-score
AACCGACG	-0.125 E-score
CATAGAGG	0.103 E-score
AACAAAAA	-0.156 E-score
GGAAAAAA	-0.155 E-score
ATGAGTAG	0.0288 E-score
AGCATCTG	-0.162 E-score
CGCTGCTA	-0.22 E-score
ACGACCGT	-0.0243 E-score
CCACCCCG	0.151 E-score
CGACCGAC	-0.158 E-score
AGAGGATG	0.12 E-score
CATATGCC	0.162 E-score
ATTGTCCC	-0.134 E-score
ACACTAAT	0.122 E-score
